The full ranking holds about 2,300 sequences; the median of “median log2 fold change of GCK-ALFA target abundance (FLAG IP / Myc IP barcode read proportion)” is about 0.095, and the lowest 2% start at about -0.47. This is one part of the list.
B1: LC3A_28_696 (protein)
chain: SAIDEQLERARREVEEAVAAGEDALVEFTVTGDATQEDIERLLAAVREMAELMAESGKLYVVIDLVGDVSQEHQDLLADGLDALEAEYPHVSVVIALDED
B2: LC3A_147_447 (protein)
chain: MKYEITVDALFKNDKELALEVAEKLREIAEKYGGEVEVKLEEEQETPTTTLYFLEVTITFEDEEKAKKAEKEISELIDETAEKYPDKFLGAIISFEEVEE
B3: LC3A_28_925 (protein)
chain: MTIEEIIEEVERKVEEGIAAGEDILIEIKIGSDYTVEEAEEIMERVREEVKRASEAGLKVYIVIDADNVSQEVLTAIAEKGDEIEKEYPNVKVIIALDEE
B4: LC3A_147_403 (protein)
chain: YIVEADIDIITKNAKEEVLAAFEEIVEELKEKGYEVELEVEVEKLDEDTWYINVKIKVETETKEEAEEVADYIEDKIDEIEEKLKDKILASLISIEIIEE
B5: LC3A_3_1564 (protein)
chain: MEKKREEALKYLKEKGASEEVLEAAKRAFDALIEKGYYEAAETFIEEAKKLADLPDEILLWFFTEVLDLVENEDLDEEETIERIKELARIARNEGEIEEL
B6: LC3A_3_1400 (protein)
chain: FEEIKKETIEFLKEAGASEEVIEKAKEVLEKLEERGYLEAAKTFKEELKKLKDASDELLLDFLEEVLRYLEENDDSEEEVVEKIKELARIALNDNEIEEL
B7: LC3A_3_1618 (protein)
chain: LEELEKEAIKALKEAGKSEETIELFKEVVDLLKEKGYEEAAKTLIELLIEGKDLPEEILRWFLEEVKELVETEDLSEEELKEKIKEIYKIAKSESEIIEL
B8: LC3A_28_1100 (protein)
chain: SALDENLKKALEEAKKAAAEGKEALIEITVGDDATEEDLKRLVETIEEIAEITKNLPALTVVINLEGEKAQEKADFLSKRADELEKKYPNLTIIIALDED

Molecular target: MAP1LC3A, Q9H492
Assay: median log2 fold change of GCK-ALFA target abundance (FLAG IP / Myc IP barcode read proportion) (log2 ratio); each designed protein is fused to an ALFA-tag nanobody in HEK293 cells to bring the named protein to FLAG-tagged glucokinase (GCK); Myc marks an untargeted standard; higher = target protein stabilised (more abundant)
Settings: target protein: 3xFLAG-MCP-GCK-ALFA reporter; HEK293 landing pad (RPLP)
In short: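 HEK293 landing-pad cells received a recombined binder library fused to the ALFA nanobody and were induced with 2 μg mL^−1 doxycycline, then transfected with a plasmid encoding a FLAG-tagged target and a Myc-tagged standard. Lysates were collected after 48 h for anti-FLAG and anti-Myc immunoprecipitation, and the circular RNA barcodes were reverse transcribed, amplified and sequenced. Target abundance for each binder is the median log2 ratio of FLAG to Myc barcode read proportions. Barcodes had to reach a proportion of at least 10^−7 in both replicates, each binder needed at least 3 barcodes per replicate, a pseudocount of 10^−6 was applied, and the two replicates were pooled.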

| Binder | median log2 fold change |
| --- | --- |
| B1 | -0.293 |
| B2 | -0.249 |
| B3 | -0.221 |
| B4 | -0.0503 |
| B5 | 0.139 |
| B6 | 0.298 |
| B7 | 0.248 |
| B8 | 0.29 |
